Publication PMC12040169 (PLOS Biology, 2025)
The list shows a part of the results.

test system: T1, C. trachomatis L2/434/Bu expressing GFP (CTL2-GFP); parameters: species or system HeLa; C. trachomatis total inclusion area by high-content imaging, normalised to DMSO; conditions: total inclusion area; 28.5 h, 10 µM; inhibitor
T1 construct: L2/434/Bu GFP intracellular growth in HeLa cells
How it was run: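 High-content imaging followed the bulk GFP/resorufin measurement: fixed, Hoechst-stained cells were scored for GFP inclusions and host nuclei per well. Total inclusion area and count served as growth proxies, nuclei number as the viability proxy. MIC calculation matched the bulk assay.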

SMILES	% of control remaining
C=C(C)Cn1c(SCC(C)C)nnc1-c1ccccc1OC [CBK200071]	107.45
CC(=O)Nc1cccc(-c2cnc(N)c(N3CCC(C(=O)O)CC3)n2)c1 [CBK063657]	119.869
Cc1cc(COc2nccnc2N2CCN(CC3CCCCC3)CC2)no1 [CBK084205]	71.6488
COCCNC(=O)c1cc(-c2ccc(C)cc2)nc2c1cnn2C(C)C [CBK305033]	61.2263
O=C(c1ccco1)N1CCN(c2cc(-c3cc4ccccc4o3)ncn2)CC1 [CBK091114]	129.775
COC(=O)Nc1sc2c(c1C(=O)N1CCOCC1)CCC(C)C2 (centres unmarked) [CBK307413]	27.2239
Cc1ccc(-c2cc(C(=O)NCc3ccc(F)cc3Cl)n[nH]2)cc1 [CBK288102]	90.4811
O=C(O)C1CCCN1S(=O)(=O)c1ccc(Cl)c(Cl)c1 (centres unmarked) [CBK217856]	88.1111
CSc1nc(SCC(=O)N(c2ccccc2)c2ccccc2)c2c3c(sc2n1)CCC3 [CBK267715]	114.875
CC(=O)N1CCc2cc(C(=O)CN3CCC(c4ccccc4)C3)ccc21 (centres unmarked) [CBK282931]	97.6364
COc1ccccc1CC(=O)NCCC(=O)N1CCN(c2ccc(F)cc2)CC1 [CBK298318]	83.6853
Fc1ccccc1CN1CCN(Cc2ccccn2)CC1 [CBK265194G]	86.2653
CCOC(=O)C1CCN(S(=O)(=O)c2cccs2)CC1 [CBK051137]	96.1036
Cc1csc(C(=O)N2CCCC(c3cc(O)cc(C)n3)C2)c1 (centres unmarked) [CBK283423]	74.9787
CCC(=O)Nc1ccc(C(=O)Nc2ccc(S(=O)(=O)N3CCCCC3)cc2)cc1 [CBK269549]	87.3909
Nc1nc(N)nc(Cn2c(-c3nonc3N)nc3ccccc32)n1 [CBK263072]	94.5012
CC(C)n1c(=O)n(CCN2CCCCC2)c2cccnc21 [CBK283932]	89.6907
N#CCCCN1CCC(Oc2nccnc2OCc2cc(Cl)cc(Cl)c2)CC1 [CBK153634]	74.7187
O=c1n(CCCNCc2ccc(Cl)cc2Cl)nc2n1CCCC2 [CBK305382]	86.0001
COc1ccc(Oc2cncc(OC3CCN(CC(=O)Nc4c(C)cccc4C)C3)n2)cc1OC (centres unmarked) [CBK084403]	100.338
CCCn1ncc(CN2CCCC(c3cc4cccnc4[nH]3)C2)c1C (centres unmarked) [CBK284957]	95.8907
CCNC(=S)NS(=O)(=O)c1ccc(C)cc1 [CBK288452]	61.6009
Cc1ccc(C(=O)N2CC(=O)N(CCO)C2)cc1 [CBK045864]	73.0167
O=C(c1ccnc2ccccc12)N1CCc2ccccc21 [CBK200283]	89.8363
O=C(O)c1ccc(N2C(=O)CC(S/C(=N\c3ccccc3)Nc3ccccc3)C2=O)cc1 (centres unmarked) [CBK262191]	71.3247
CCc1nc(-c2ccc(C)c(S(=O)(=O)N3CCN(c4ccccc4)CC3)c2)no1 [CBK294434]	115.17
CCc1ccc2oc(-c3ccc(NC(=O)COc4ccc(Cl)cc4Cl)cc3O)nc2c1 [CBK263424]	104.66

SMILES	% of control remaining
Cc1csc(Sc2nc3ccccc3nc2N2CCCC2)n1 [CBK093788]	89.8302
CC(C)Nc1nc(Cl)nc(Nc2ccc(I)cc2)n1 [CBK027685]	86.0749
CC(C)Oc1ncc(C(=O)N(CCC#N)Cc2ccco2)cc1Cl [CBK304908]	51.0588
COc1ccc(S(=O)(=O)N2CCCC(C(=O)NCc3ccc4c(c3)OCO4)C2)cc1Cl (centres unmarked) [CBK268230]	91.3009
COc1ccc(-c2ccc(C(=O)N(C)C)c(N3CCN(C(=O)c4ccco4)CC3)n2)cc1 [CBK106020]	86.7143
COC(=O)CSc1nnc(-c2cc(Cl)ccc2OC)[nH]1 [CBK270248]	112.278
O=C(CCN1C(=O)/C(=C\C=C\c2ccccc2)SC1=S)Nc1cccc(C(=O)O)c1 [CBK264798]	107.787
O=[N+]([O-])c1ccc(O)c(/C=N/C(CO)(CO)CO)c1 [CBK261835]	97.6774
COc1ccccc1N1CCN(CC(=O)NC2CC3CCC2C3)CC1 (centres unmarked) [CBK269162]	118.43
CN(C)S(=O)(=O)c1ccc(C(=O)C2=C(O)C(=O)N(Cc3cccnc3)C2c2ccccc2)cc1 (centres unmarked) [CBK264667]	83.4417
CC(=O)c1ccc(-c2nc(NC(=O)c3cccs3)cnc2-c2ccc(F)cc2)s1 [CBK037558]	96.4707
O=C(O)/C=C\C(=O)Nc1ccc(OCC(=O)O)cc1 [CBK264449]	98.9402
O=C(Cc1cccc2ccccc12)NC(=S)Nc1cccc(C(=O)O)c1 [CBK267471]	103.543
O=C(COc1ccc(Cl)cc1Cl)Nc1cccc(NC(=O)c2ccccc2Cl)c1 [CBK264726]	101.851
CC1CCCC(N2CCN(Cc3ccccn3)CC2)C1 (centres unmarked) [CBK263450]	105.304
O=C(CCC1CCCCC1)N1CCC(c2n[nH]cc2C(=O)N2CCc3ccccc3C2)CC1 [CBK286271]	105.612
CCCn1cc(NC(=O)NC(CC)(CO)c2ccccc2)ccc1=O (centres unmarked) [CBK305060]	80.0637
CCS(=O)(=O)Nc1ccc(C(=O)N2CCN(c3ccccc3)CC2)cc1 [CBK304345]	69.3497
Cc1ccc(OCC(O)Cn2c(=N)n(CCN3CCCCC3)c3ccccc32)cc1 (centres unmarked) [CBK266375C]	115.833
N#CC1=C(SCC(=O)Nc2cccc3ccccc23)NC(=O)CC1c1ccco1 (centres unmarked) [CBK265793]	85.4985
Cc1cnn(C2CCN(C(=O)CC3OCCc4ccccc43)CC2)c1 (centres unmarked) [CBK304186]	36.6268
CCOC(=O)Cn1ncc2c3sc(C)cc3n(CC)c2c1=O [CBK284185]	70.3008
Cc1cc(OCC(=O)NN2CCN(C)CC2)ccc1[N+](=O)[O-] [CBK268136]	83.6628
Nc1cc(S(=O)(=O)C(F)(F)F)ccc1C(=O)O [CBK286646]	87.9798
COc1ccc2c(c1)C1(CC(=O)N(Cc3ccc(OC)c(OC)c3)C1=O)C(=O)N2C (centres unmarked) [CBK075157]	82.6262
COc1ccc(CNC(=O)CN2C(=O)[C@@H]3CCCN3C(=O)c3ccccc32)cc1 [CBK286322]	126.706
O=C(NC1CCN(CC(F)(F)F)C1=O)c1cc(Cl)ccn1 (centres unmarked) [CBK305223]	38.7697

SMILES	% of control remaining
Cc1cc(CNS(=O)(=O)c2c(C)noc2C)no1 [CBK062261]	90.549
C[C@@H]1CN2CCCC2CN1Cc1ccc2ncccc2c1 (some centres unmarked) [CBK284555]	59.0472
CCc1nnc(NS(=O)(=O)c2ccc(N/C=C3\C(=O)N(c4ccc(C)cc4)N=C3C)cc2)s1 [CBK262395]	31.4839
O=C(Nc1ccc(Cl)cc1C(=O)O)c1ccccc1 [CBK269993]	102.489
CC(C)Oc1ncc(C(=O)Nc2ccc(OCCC(N)=O)cc2)cc1Cl [CBK305750]	16.6639
Cc1ccc(S(=O)(=O)NCCSc2nnc(Nc3ccccc3)s2)cc1 [CBK266345]	87.5516
CC(C)N(C(=O)CN1C(=O)N2CCN=C2c2ccccc21)C(C)C [CBK284005]	91.3811
Cc1c(C(=O)NCc2ccncc2)nnn1-c1cccc(C(F)(F)F)c1 [CBK107396]	97.3128
CCN1CC2(CCC1=O)CCN(Cc1nncn1C(C)C)CC2 [CBK307460]	39.7939
CCOc1ccc2[nH]c(C(=O)NC3CCCOC3)cc2c1 (centres unmarked) [CBK283114]	106.008
O=C(CSc1nnc(-c2cccc(F)c2)o1)c1ccccc1 [CBK068764]	105.417
CCCc1c(C(=O)N2CCN(c3cnccn3)CC2)cnn1C [CBK305962]	64.2656
O=C(NCCCc1ccccn1)c1cc2ccc(F)cc2[nH]1 [CBK283211]	87.9273
COc1ccc(F)cc1-c1cccc(CC2(C(=O)NC3CCCCC3)CCOCC2)c1 [CBK285541]	96.77
COc1cc(C)c2c(N)c(C(C)=O)sc2n1 [CBK115336]	87.421
Cc1nc(Oc2ccccc2)c2c3c(sc2n1)CCCC3 [CBK131919]	100.329
Cc1ccccc1-c1nnc(NC(=O)c2ccc(N3C(=O)CCC3=O)cc2)s1 [CBK287332]	101.805
Cc1cnc2c(Cl)c(C(=O)NCC3(CN4CCOCC4)CC3)nn2c1 [CBK306918]	61.3974
CN1CCCN(c2ccc(NS(=O)(=O)c3ccc(F)cc3F)c3ccccc23)CC1 [CBK001499C]	8.558
N#Cc1nc(COc2cccc(Cl)c2)oc1NCc1ccncc1 [CBK266447]	124.922
COc1ccc(/C=N/NC(=O)c2ccc(O)cc2O)cc1COc1cc(C)c(Cl)c(C)c1 [CBK263000]	100.922
O=C(NC1CCN(c2nc3cccnc3s2)CC1)c1ccsc1 [CBK304342]	58.9276
CC(C)NC(=O)N1CCCC1c1nc(-c2ccc(Cl)cc2)c2ccccn12 (centres unmarked) [CBK046947]	87.6406
CC(C)(C)C(=O)NCCN1CCC(O)(c2ccc(F)cc2)CC1 [CBK283262]	69.5464
CCOC(=O)CN1CCC(Oc2cncc(OCCN3CCOCC3)n2)C1 (centres unmarked) [CBK084491]	86.9771
COc1ccc(C(=O)N2CCC(N(C)Cc3ccc(-c4ccc(S(C)(=O)=O)cc4)nc3)CC2)cc1Cl [CBK165991T]	78.3251
